This note sets out measurements from the supplement of paper PMC9588766.

The structures appear in SMILES notation. Values joined by “and” are separate entries in the source; they are usually repeats but may differ in a detail not shown here. Equal values may be shown once. Where a name gives a salt, the structure may show the parent alone. ± gives the standard deviation of the averaged measurements. The full ranking holds about 2,000 compounds; the median of “cell viability relative to DMSO control (compound alone)” is about 0.98, and the lowest 2% start at about 0.23. Some of the results follow.

This experiment deals with PDC-DUC18828. Description: cell viability relative to DMSO control (compound alone) (fraction); PDC-DUC18828 is a patient-derived cholangiocarcinoma cell line; higher = less growth inhibition. The note with it: 1 µM; 72 h. As for the experimental part: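 Selleck Bioactive library screen in the patient-derived FGFR2-G3BP2 fusion-positive ICC cell line PDC-DUC18828 (500 cells/well). Each compound was tested at 1 uM alone, in triplicate, for 72 h. Viability was read by CellTiter-Glo and normalised to plate DMSO controls.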
The molecule `Cc1csc(-c2nnc(Nc3ccc(Oc4ncccc4-c4ccnc(N)n4)cc3)c3ccccc23)c1` returned a cell viability of 0.623 ± 0.045.
The same measure for `Nc1nc2c(ncn2COC(CO)CO)c(=O)[nH]1` [Ganciclovir]: 0.9796 ± 0.0086; for `COc1ccc2c(Oc3ccc(NC(=O)c4c(C)n(CC(C)(C)O)n(-c5ccccc5)c4=O)nc3)ccnc2c1`: 0.9952 ± 0.0074; for `COc1c(C)cnc(Cn2cnc3c(Cl)nc(N)nc32)c1C`: 0.401 ± 0.04.
As to `c1ccc2c(CCNc3ccc(Nc4ccncc4)cc3)c[nH]c2c1`, the cell viability stood at 0.931 ± 0.024.
In the case of `NCCCCCC(=O)O` [(6-)ε-Aminocaproic acid], the cell viability was 0.997 ± 0.032.
`CC(C)CCNC(=O)[C@H](CC(C)C)NC(=O)[C@H]1O[C@@H]1C(=O)O` [Loxistatin Acid (E-64C)] showed a cell viability of 1.07 ± 0.03.
The figure for `Cc1nc2c([nH]1)-c1ccccc1N(C(=O)c1ccc(NC(=O)c3ccccc3-c3ccccc3)cc1)CC2` [Conivaptan HCl] is 1.08 ± 0.022; for `Cn1ncnc1[C@H]1c2n[nH]c(=O)c3cc(F)cc(c23)N[C@@H]1c1ccc(F)cc1` it is 0.5 ± 0.018; for `Cc1cnc(Nc2ccc(OCCN3CCCC3)cc2)nc1Nc1cccc(S(=O)(=O)NC(C)(C)C)c1` it is 0.857 ± 0.014.
`O=C(Cc1ccccc1)Nc1nnc(CCSCCc2nnc(NC(=O)Cc3ccccc3)s2)s1`: the cell viability came to 0.96 ± 0.046.
On to `COc1cc(-c2ncn(/C=C\C(=O)OC(C)C)n2)cc(C(F)(F)F)c1`, for which the cell viability was found to be 0.395 ± 0.037.
In turn, `COc1ccc(-c2nc(N3CCOCC3)c3sc(CN(C)c4ncc(C(=O)NO)cn4)cc3n2)cn1` displayed a cell viability of 0.0525 ± 0.0074.
`COc1ccc(Cl)c(Nc2nc3ccccc3nc2NS(=O)(=O)c2cccc(NC(=O)C(C)(C)N)c2)c1` [Pilaralisib (XL147)] came in with a cell viability of 0.858 ± 0.042.
Consider `CCCNC(=O)NS(=O)(=O)c1ccc(Cl)cc1` [Chlorpropamide], for which the cell viability came out at 1.12 ± 0.028.
`C[C@]12C=CC(=O)N[C@@H]1CC[C@@H]1[C@@H]2CC[C@]2(C)[C@@H](C(=O)Nc3cc(C(F)(F)F)ccc3C(F)(F)F)CC[C@@H]12` [Dutasteride] showed a cell viability of 0.932 ± 0.011.
As for `Clc1cccc(Cl)c1NC1=NCCN1` [Clonidine HCl], the cell viability was found to be 0.953 ± 0.019.
`CO[C@H]1/C=C/O[C@@]2(C)Oc3c(C)c(O)c4c(O)c(c5c(nc6cc(C)ccn65)c4c3C2=O)NC(=O)/C(C)=C\C=C\[C@H](C)[C@H](O)[C@@H](C)[C@@H](O)[C@@H](C)[C@H](OC(C)=O)[C@@H]1C` [Rifaximin] had a cell viability of 0.892 ± 0.04.
Turning to `Cc1ccc([C@@H]2O[C@H](CO)[C@@H](O)[C@H](O)[C@H]2O)cc1Cc1ccc(-c2ccc(F)cc2)s1` [Canagliflozin], the cell viability amounted to 1.01 ± 0.067.
`CC(C)(C)c1cc(C(C)(C)C)c(NC(=O)c2c[nH]c3ccccc3c2=O)cc1O` [Ivacaftor (VX-770)]: the cell viability came to 0.956 ± 0.018.
Regarding `CC(C)NC[C@@H](C(=O)N1CCN(c2ncnc3c2[C@H](C)C[C@H]3O)CC1)c1ccc(Cl)cc1`, the cell viability turned out to be 1 ± 0.048.
As for `COc1cccc(C=NCCN=Cc2cccc(OC)c2[O-])c1[O-].[Cl-].[Mn+3]`, the cell viability was 0.927 ± 0.024.
The molecule `COCC(=O)NC/C=C/c1ccc2ncnc(Nc3ccc(Oc4ccc(C)nc4)c(C)c3)c2c1` showed a cell viability of 0.962 ± 0.043.
Take `Oc1cc2c(cc1O)C(c1ccccc1)CNCC2` (stereo not given): the cell viability was found to be 0.996 ± 0.1.
The figure for `Cn1c(=O)c2c(ncn2CC2OCCO2)n(C)c1=O` [Doxofylline] is 1.01 ± 0.017.
In turn, `C=CC(=O)Nc1cccc(Sc2nc(Nc3ccc(N4CCN(C)CC4)cc3)ncc2Cl)c1` returned a cell viability of 0.854 ± 0.049.
`CCCCNc1ncc(C(=O)NCc2ccc(-n3ccnc3)cc2)c(NC2CCC(O)CC2)n1` (stereo not given) had a cell viability of 0.813 ± 0.021.
Molecule `CCOC(=O)[C@H]1O[C@@H]1C(=O)N[C@@H](CC(C)C)C(=O)NCCC(C)C` [Aloxistatin] yielded a cell viability of 1.02 ± 0.021.
For `COc1cc(Nc2c(C#N)cnc3cc(OCCCN4CCN(C)CC4)c(OC)cc23)c(Cl)cc1Cl` [Bosutinib (SKI-606)], the cell viability worked out at 0.84 ± 0.036.
For the molecule `CCC1(c2ccccc2)C(=O)NCNC1=O` [Primidone], the cell viability worked out at 1.06 ± 0.032.
The figure for `CCCCc1oc2ccc(NS(C)(=O)=O)cc2c1C(=O)c1ccc(OCCCN(CCCC)CCCC)cc1` [Dronedarone HCl] is 0.987 ± 0.037; for `O=C(Nc1cccnc1)c1cc(-c2ccnc(F)c2)ccc1OCc1ccccc1` it is 0.942 ± 0.029.
Molecule `O=C1CC[C@@H](C(=O)N2CSC[C@H]2C(=O)O)N1` [Pidotimod] showed a cell viability of 0.976 ± 0.034.
In turn, `c1ccc(-c2ccc(C(c3ccccc3)n3ccnc3)cc2)cc1` (stereo not given) [Bifonazole] yielded a cell viability of 0.985 ± 0.018.
The figure for `Oc1c(Cl)cc(Cl)c2cccnc12` [Chloroxine] is 0.968 ± 0.04; for `COc1ccc(Cl)cc1NC(=O)Nc1cc(C)nc2ccccc12` it is 1.01 ± 0.023.
The same measure for `CN(C)CCC(c1ccc(Br)cc1)c1ccccn1` (stereo not given) [Brompheniramine hydrogen maleate]: 0.949 ± 0.015; for `C=CC(=O)Nc1cccc(Oc2nc(Nc3ccc(N4CCN(C)CC4)cc3)ncc2Cl)c1`: 0.652 ± 0.02; for `C[C@@](Cc1ccc(O)c(O)c1)(NN)C(=O)O` [Carbidopa]: 0.96 ± 0.035.
The same measure for `CCOc1nc2cccc(C(=O)O)c2n1Cc1ccc(-c2ccccc2-c2nnn[nH]2)cc1` [Candesartan]: 1.07 ± 0.023.
In the case of `Nc1ncnc2c1ncn2[C@@H]1O[C@H](CO)[C@@H](O)[C@@H]1O` [Vidarabine], the cell viability is 0.95 ± 0.042.
For `CC1CCN(CC[C@H]2CCCN2S(=O)(=O)c2cccc(O)c2)CC1`, the cell viability is 1.01 ± 0.027.
In the case of `O=C(NC(Cc1cc(=O)[nH]c2ccccc12)C(=O)O)c1ccc(Cl)cc1` (stereo not given) [Rebamipide], the cell viability turned out to be 0.993 ± 0.04.
The same measure for `COc1ccc2[nH]cc(/C=C3\C(=O)Nc4ccc(NC(=O)CCN5CCCCC5)cc43)c2c1`: 0.997 ± 0.026; for `COC(=O)/C=C/C(=O)OC` [Dimethyl Fumarate]: 0.91 ± 0.024; for `CC(C)c1cc(C(C)C)c(CC(=O)NS(=O)(=O)Oc2c(C(C)C)cccc2C(C)C)c(C(C)C)c1` [Avasimibe]: 0.899 ± 0.015.
The same measure for `O=C(NNc1nc2cc(F)ccc2n2cccc12)c1cnccn1`: 0.101 ± 0.012; for `CN1CCN(Cc2ccc(-c3cnc4[nH]cc(-c5ccc6[nH]ccc6c5)c4c3)cc2)CC1`: 0.97 ± 0.046.
In turn, `CCOC(=O)C1=C(C)NC(C)=C(C(=O)OC)C1c1cccc(Cl)c1Cl` (stereo not given) [Felodipine] had a cell viability of 1.026 ± 0.0077.
In the case of `CCOC(=O)c1ccc(NC2CCCCC2)c(N)c1` [Ferrostatin-1 (Fer-1)], the cell viability was found to be 0.98 ± 0.03.
For the molecule `O=C1c2c(O)ccc(O)c2C(=O)c2c(NCCNCCO)ccc(NCCNCCO)c21` [Mitoxantrone], the cell viability was found to be 0.243 ± 0.015.
The molecule `O=C1c2c(O)ccc(O)c2C(=O)c2c(NCCNCCO)ccc(NCCNCCO)c21` [Mitoxantrone HCl] registered a cell viability of 0.173 ± 0.018.
For the molecule `CC1(C)CC[C@]2(NC(=O)C(C)(F)F)CC[C@]3(C)[C@H](C(=O)C=C4[C@@]5(C)C=C(C#N)C(=O)C(C)(C)[C@@H]5CC[C@]43C)[C@@H]2C1` [Omaveloxolone (RTA-408)], the cell viability was determined as 0.0541 ± 0.0029.
As for `CCCCc1ncc(/C=C(\Cc2cccs2)C(=O)O)n1Cc1ccc(C(=O)O)cc1` [Eprosartan Mesylate], the cell viability was 0.95 ± 0.024.
`CN1CCCN(C(=O)c2cccc(-c3ccc(/C=C4/C(=O)Nc5ccc(Cl)cc54)o3)c2)CC1` returned a cell viability of 0.572 ± 0.016.
Molecule `CCCCCCCCOc1ccccc1C(=O)Nc1ccc(C(=O)OCC[N+](C)(CC)CC)cc1` [Otilonium Bromide] registered a cell viability of 0.901 ± 0.043.
The figure for `CN1CCN2c3ccccc3Cc3ccccc3C2C1` (stereo not given) [Mianserin HCl] is 0.99 ± 0.02; for `CN(c1ncccc1CNc1nc(Nc2ccc3c(c2)CC(=O)N3)ncc1C(F)(F)F)S(C)(=O)=O` it is 1.03 and 0.937 and 0.975.
In the case of `CCc1ccc(OCc2ccccc2C(=O)Nc2ccc3nc(C)cc(N)c3c2)cc1`, the cell viability stood at 0.906 ± 0.049.
The figure for `Cn1nc(C(C)(C)C)cc1C(=O)N[C@@H](Cc1cccc(Cl)c1)C(=O)NCC#N` [Cathepsin Inhibitor 1] is 0.991 ± 0.024; for `CN(C)CCc1c[nH]c2ccc(CS(=O)(=O)N3CCCC3)cc12` [Almotriptan Malate] it is 1 ± 0.021; for `O=C(Nc1ccccc1)N1CCN(c2nc(-c3ccccc3)ns2)CC1` it is 1.06 ± 0.021.
In turn, `Clc1cccc(CN=C2Nc3ccccc3NC23CCNCC3)c1` [Liproxstatin-1] gave a cell viability of 0.963 ± 0.033.
The same measure for `CC(CNC(=O)c1cccnc1)NC(=O)c1cccnc1` (stereo not given) [Nicaraven]: 0.935 ± 0.053; for `Cc1cnc(NC(=O)Nc2cc(Br)c(C)cc2OC[C@@H]2CNCCO2)cn1`: 0.989 ± 0.048.
`Cc1ccc(Sc2cncc3sc(C(N)=O)cc23)cc1` registered a cell viability of 0.835 ± 0.018.
On to `Nc1cc(C(F)(F)F)c(-c2cc(N3CCOCC3)nc(N3CCOCC3)n2)cn1` [BKM120 (NVP-BKM120, Buparlisib)], for which the cell viability was 0.676 ± 0.04.
Molecule `Cc1c(C(=O)Nc2ccc(N3C[C@@H](C)O[C@@H](C)C3)nc2)cccc1-c1ccc(OC(F)(F)F)cc1` [LDE225 (NVP-LDE225,Erismodegib)] registered a cell viability of 1.13 ± 0.15.
The same measure for `COc1cccc(-c2cc(F)ccc2C2Cc3nc(N)nc(C)c3C(=O)N2)n1` (stereo not given): 0.356 ± 0.016; for `O=c1cc(N2CCOCC2)oc2c(-c3ccccc3)cccc12`: 0.979 ± 0.066.
`CCc1ccc(/C=C2/SC(=S)NC2=O)cc1` returned a cell viability of 1.03 ± 0.074.
The figure for `Cc1ccc(Nc2nccc(N(C)c3ccc4c(C)n(C)nc4c3)n2)cc1S(N)(=O)=O` [Pazopanib] is 0.842 ± 0.017.
The figure for `COc1cc(Nc2ncc3c(n2)-c2ccc(Cl)cc2C(c2c(F)cccc2OC)=NC3)ccc1C(=O)O` [Alisertib (MLN8237)] is 0.58 ± 0.037.
As for `CCCCC(=O)N(Cc1ccc(-c2ccccc2-c2nnn[nH]2)cc1)[C@H](C(=O)O)C(C)C` [Valsartan], the cell viability was determined as 0.934 ± 0.022.
Turning to `OCC(CO)N[C@H]1C[C@](O)(CO)[C@@H](O)[C@H](O)[C@H]1O` [Voglibose], the cell viability was 0.981 ± 0.017.
In the case of `Nc1ccc(/N=N/c2ccccc2)c(N)n1` [Phenazopyridine HCl], the cell viability came out at 1.01 ± 0.038.
Turning to `CCC(=O)O[C@]1(C(=O)SCF)[C@H](C)C[C@H]2[C@@H]3C[C@H](F)C4=CC(=O)C=C[C@]4(C)[C@@]3(F)[C@@H](O)C[C@@]21C` [Fluticasone propionate], the cell viability came to 0.938 ± 0.046.
The molecule `Cc1[nH]nc2ccc(-c3cncc(OC[C@@H](N)Cc4ccccc4)c3)cc12` displayed a cell viability of 0.89 ± 0.041.
For the molecule `CC(C)[C@H](O)C(=O)N[C@@H](C)C(=O)N[C@@H]1C(=O)N(C)CCc2ccccc21`, the cell viability worked out at 1.02 ± 0.032.
On to `CCCCN1CCCC[C@H]1C(=O)Nc1c(C)cccc1C` [Levobupivacaine HCl], for which the cell viability worked out at 1.03 ± 0.031.
